To fix the notation:
B1: LINE1-mini (parent)
chain: GGCAGAGCUCAACACAGCGUGGCAAAGUGGCUGUGGCUAGACUGCC

Self-cleavage data for 167 variants are collected here from the RNAGym collection of RNA variant scans (doi:10.7554/elife.90254).

The source gives no read counts; variants with many changes may rest on few reads.

The variants in this series derive from B1. The series can be described thus: self-cleavage, relative activity (ratio to wild type); higher = more cleavage; in vitro, sequencing; the parent is a self-cleaving ribozyme.
As to G7A C10U C13G G29A, the self-cleavage was 0.13.

As for G7A C8A A39C, the self-cleavage is 0.29.

Consider G7A A11U C13U, for which the self-cleavage was determined as 0.03.

In the case of G7A A12C C18U A25U G40A, the self-cleavage stood at 0.01.

Turning to G7A A14U G29U, the self-cleavage is 0.2.

A6U U9C C23A: the self-cleavage turned out to be 0.07.

Take G7A C10G A16G C18U: the self-cleavage came out at 0.02.

As to G7A A26U G27A, the self-cleavage is 0.13.

For the variant A6U U9A U20G, the self-cleavage turned out to be 0.09.

For A6U G27C G30U C42U, the self-cleavage stood at 0.19.

With G7A C8A U9C G40C A41C, the self-cleavage was 0.09.

Consider G7A A24C G30C, for which the self-cleavage came out at 0.36.

On to G7A A11U A25G, for which the self-cleavage was 0.06.

Turning to G7A C10U G17A, the self-cleavage is 0.

For G7A C15A G17U G35A, the self-cleavage turned out to be 0.07.

In the case of G7A A26U G36A, the self-cleavage worked out at 1.08.

Turning to G7A C10U A24G U28G, the self-cleavage turned out to be 0.02.

Consider G7A C15A G22A G30A, for which the self-cleavage was found to be 0.1.

Regarding G7A A14U G40A A41C C46G, the self-cleavage stood at 0.69.

For G7A C13A C37A, the self-cleavage was 0.48.

Regarding G7A C8U A11C G35C, the self-cleavage is 0.03.

Consider A6U U9C A26C G30A C37U, for which the self-cleavage turned out to be 0.06.

As for G7A C15A C23G G27A, the self-cleavage was found to be 0.14.

Turning to A6U U20A U28G, the self-cleavage was determined as 0.13.

On to A6U G22U A39C, for which the self-cleavage was 0.29.

On to A6U G36U A39U, for which the self-cleavage is 0.1.

Regarding G7A C13A G27U G35U, the self-cleavage came to 0.1.

In the case of G7A C8A U43A, the self-cleavage was determined as 0.12.

In the case of G7A C8U A14G, the self-cleavage was 0.28.

Consider G7A C10A A16C G17A G44A, for which the self-cleavage was 0.01.

G7A A25C G30A: the self-cleavage was determined as 0.19.

As to A6U G22A U43A, the self-cleavage is 0.09.

On to A6U U20G G30A A39C, for which the self-cleavage is 0.29.

Consider G7A A11C U28C G30C, for which the self-cleavage was 0.

In the case of G7A A14U G19C C37A, the self-cleavage came to 0.02.

Turning to G7A A12C G44C, the self-cleavage stood at 0.05.

With A6U U20A A25C G27U G29U G40C, the self-cleavage came to 0.02.

On to G7A C15G U20A, for which the self-cleavage turned out to be 0.02.

In the case of A6U U20C G40A, the self-cleavage came to 0.34.

Consider G7A C8A U20G A25C A41C, for which the self-cleavage amounted to 0.15.

Take A6U G21C C46U: the self-cleavage was found to be 0.66.

As for G7A A11U G27U U32C G35U U38A, the self-cleavage was 0.01.

Take G7A C13A U28A C31A U43G: the self-cleavage is 0.02.

With G7A A11C G19C A24C, the self-cleavage came out at 0.

For G7A C8G A24U, the self-cleavage was found to be 0.1.

As to G7A A11C C23A, the self-cleavage is 0.03.

For the variant A6U G29A G30A C45A, the self-cleavage worked out at 0.84.

For A6U G27U U38A C45A, the self-cleavage worked out at 0.23.

In the case of G7A C8A G19C G29U U34C G40U, the self-cleavage worked out at 0.11.

For the variant A6U G29C A39G, the self-cleavage stood at 0.07.

As for G7A C8U G30A, the self-cleavage turned out to be 0.46.

For the variant A6U G21U A26C, the self-cleavage stood at 1.56.

Consider G7A C10G C37U A39U, for which the self-cleavage worked out at 0.01.

In the case of G7A C15U G27C C31G, the self-cleavage stood at 0.15.

As for G7A C18G C23U G29U G35U G36A, the self-cleavage stood at 0.07.

As to A6U G21U A39U G40A, the self-cleavage is 0.31.

As for G7A C8U C37G G40A, the self-cleavage was determined as 0.06.

As for G7A C8A U9C C23U G44C C45A, the self-cleavage came to 0.1.

For the variant A6U G21A G22C A26C G27A, the self-cleavage came to 0.13.

As to G7A A24U G29C, the self-cleavage turned out to be 0.06.

For the variant G7A C18U G21A G30A, the self-cleavage came to 0.08.

G7A C8A A11U C37G: the self-cleavage worked out at 0.

On to A6U G21C C37A, for which the self-cleavage was 0.04.

In the case of A6U G40U A41G, the self-cleavage stood at 0.1.

G7A C13G C42U G44A: the self-cleavage stood at 0.35.

For A6U G22A G36A C42U G44U, the self-cleavage is 0.17.

As for G7A C10U A16G C18G, the self-cleavage was 0.01.

As to A6U G30C C31A, the self-cleavage is 0.39.

Turning to G7A C8U G35C, the self-cleavage came out at 0.04.

Regarding G7A C13U G19U G35U, the self-cleavage turned out to be 0.07.

G7A A26U G40U: the self-cleavage is 0.27.

Turning to G7A A12G C18U U32A C46A, the self-cleavage stood at 0.16.

Turning to G7A C8U U9G, the self-cleavage came to 0.53.

As to G7A C8A U9A A25U, the self-cleavage is 0.18.

Turning to A6U U20C C46G, the self-cleavage is 1.05.

G7A C18A C23U: the self-cleavage was 0.14.

On to G7A C8G G17A G29U C31U, for which the self-cleavage came to 0.01.

As for G7A A14C G27U G29A, the self-cleavage was found to be 0.47.

On to G7A A12U A41G, for which the self-cleavage is 0.03.

Consider G7A C10A G36A, for which the self-cleavage turned out to be 0.02.

Consider G7A C10G C18G G19A A25G G27U G30U G36A, for which the self-cleavage was found to be 0.01.

For the variant A6U U34G C46A, the self-cleavage amounted to 0.18.

G7A A26U U34C G35U: the self-cleavage came out at 0.14.

With G7A A25U G35U, the self-cleavage was 0.15.

As for G7A A11U U20C C37A A41C, the self-cleavage worked out at 0.02.

In the case of G7A A11C C18G C31G, the self-cleavage stood at 0.01.

Regarding A6U G29U G35C G40U, the self-cleavage turned out to be 0.08.

G7A A11U A14G A16C G29A U34A: the self-cleavage stood at 0.01.

For G7A C18G A26C, the self-cleavage came out at 0.09.

On to G7A C10U A11U G17A, for which the self-cleavage stood at 0.04.

As for G7A C10G G17U C23A U43A, the self-cleavage was found to be 0.04.

For G7A A11U C31G A39C, the self-cleavage came to 0.02.

For G7A A12C U38A, the self-cleavage amounted to 0.01.

On to G7A A39C C42A, for which the self-cleavage is 0.36.

For the variant G7A C13A U43C G44A, the self-cleavage was determined as 0.07.

Consider G7A C18U C45U, for which the self-cleavage turned out to be 0.16.

Consider G7A C8A U9A C10U A14G U34C A39C, for which the self-cleavage is 0.02.

Regarding G7A C18A U32G U38G, the self-cleavage stood at 0.02.

G7A C8G A14C G21A U28A G40C: the self-cleavage is 0.02.

On to G7A C15G C37A A41G G44U C45A, for which the self-cleavage stood at 0.07.

Take A6U G21U C23A G35U G36U: the self-cleavage amounted to 0.18.

Regarding G7A C15G C23A G30C C31G, the self-cleavage was found to be 0.5.

With G7A A11G G29U, the self-cleavage is 0.02.

Take A6U U9A A25C: the self-cleavage was 0.05.

Regarding G7A C10U C18G U32C U34A, the self-cleavage worked out at 0.05.

For the variant G7A C13U A16C U43C, the self-cleavage was found to be 0.73.

For A6U G44U C45U, the self-cleavage worked out at 0.1.

As for G7A C8G G17C G21U G22C A24G, the self-cleavage is 0.03.

Consider A6U G33A C37A, for which the self-cleavage stood at 0.06.

G7A C10A U32C U34C G35U: the self-cleavage was 0.01.

In the case of A6U G21U U38G C42U, the self-cleavage stood at 0.04.

Regarding A6U G30C U43A, the self-cleavage was 0.03.

Regarding G7A A25U G35C U43G, the self-cleavage came to 0.06.

For the variant G7A A24C U38G, the self-cleavage is 0.01.

For the variant A6U U32A G35A, the self-cleavage is 0.01.

With G7A C10U U43G, the self-cleavage was 0.15.

Take A6U U9G C23U A26C: the self-cleavage was determined as 0.02.

With G7A C10U G22C A24C, the self-cleavage was 0.01.

On to G7A C10A C45A, for which the self-cleavage was found to be 0.01.

Take G7A C15U G36U: the self-cleavage was 0.1.

G7A A24C G36A C46U: the self-cleavage was found to be 0.12.

Regarding G7A C10A A14U G21A G29A G33C U43G, the self-cleavage came out at 0.04.

On to G7A C15U C46A, for which the self-cleavage stood at 0.11.

With G7A C8A U20G G40U, the self-cleavage came to 0.28.

As for G7A C8A G36U, the self-cleavage came out at 0.21.

On to A6U U9C C23G U32A U34A U43A C45A, for which the self-cleavage is 0.01.

For the variant G7A C10U A25G, the self-cleavage turned out to be 0.01.

In the case of G7A A11C G40U, the self-cleavage was found to be 0.02.

Consider G7A C15A G19U G30A A41U C46G, for which the self-cleavage was determined as 0.08.

On to A6U G36A G40U, for which the self-cleavage is 1.07.

With G7A A11C A24G, the self-cleavage came out at 0.02.

For G7A A14C G36U U38G, the self-cleavage was 0.

For A6U U20A C31U A39U C42U, the self-cleavage worked out at 0.05.

As to A6U G21U G33C G35U C46G, the self-cleavage stood at 0.12.

Consider G7A A16G A26C, for which the self-cleavage was determined as 0.08.

Regarding A6U G21U G36U, the self-cleavage turned out to be 0.03.

With A6U G21U G36C, the self-cleavage is 0.17.

In the case of G7A C15G G17U G21U G33C, the self-cleavage is 0.02.

With G7A C18A C31U G35U G44A, the self-cleavage stood at 0.03.

With A6U G19C G21U, the self-cleavage came out at 0.26.

Turning to A6U G35U C46U, the self-cleavage worked out at 0.17.

In the case of G7A A16C G21C A26C U34C U38A, the self-cleavage was found to be 0.03.

As for G7A C18A G36U C37U, the self-cleavage was 0.01.

In the case of A6U G22C U43C, the self-cleavage came to 0.26.

On to G7A A16C C23A, for which the self-cleavage was determined as 0.28.

In the case of G7A A16C U20G, the self-cleavage was 0.05.

Turning to G7A A11G C13A G29A G35U G40C A41U, the self-cleavage is 0.02.

As for A6U G21A C37A U38A, the self-cleavage was found to be 0.06.

Consider G7A A12C G40A, for which the self-cleavage came to 0.03.

For the variant G7A A26C G30A C46G, the self-cleavage came to 0.15.

For the variant G7A C18A U38A C45A, the self-cleavage came to 0.13.

In the case of G7A A16C G19C U20G, the self-cleavage turned out to be 0.09.

On to G7A A12U A16G G36U, for which the self-cleavage amounted to 0.31.

For G7A C8G A14U, the self-cleavage stood at 0.03.

Regarding G7A C10A C15G G19C A25G, the self-cleavage came to 0.02.

With G7A C8U G22U G33U, the self-cleavage came out at 0.46.

For A6U G27C G29U, the self-cleavage was 0.15.

For A6U U20G C31A C37A, the self-cleavage was 0.04.

Turning to G7A C10U A25U G27A G44U C45G, the self-cleavage came to 0.02.

As to A6U G27C G40C, the self-cleavage came out at 0.03.

As to G7A A12U U20C G27A, the self-cleavage stood at 0.15.

In the case of G7A A11G A16U C42U, the self-cleavage was 0.03.

For the variant G7A A11U A16C, the self-cleavage was 0.02.

A6U G33U C42A: the self-cleavage amounted to 0.04.

For A6U G21U A24G A25C G27U, the self-cleavage came out at 0.07.

Turning to A6U G19U U32C C42G, the self-cleavage turned out to be 0.1.

Turning to G7A A11U G27U A39C, the self-cleavage turned out to be 0.02.
